US6545000B1, “[1,2,4]triazolo[1,5-c]pyrimidine derivatives” (Kyowa Hakko Kogyo Co., Ltd., priority 1998, dated 2003)
For part of these data: The name of at least one read-out is uncertain. For part of these data: For at least one compound, name, drawing or mass did not settle the structure.

What was measured:
[1] = tested on: CGS 21680-induced catalepsy; experiment: Activity on CGS 21680-induced catalepsy; assay type: in vivo, mouse; details: catalepsy score 4 points or less, out of 10 mice; 10 mg/kg oral
Experimental: This test was carried out using 10 animals per group of male ddY mice of 5 week age (22 to 25 g in body weight, Japan SLC). […] One hour after the administration of the test compound, only forelimbs or only hindlimbs of each animal were laid on a vertically arranged stand made of acryl, having a size of 4.5 cm in height and 1.0 cm in width, to measure catalepsy symptoms. All of the test compounds were administered orally in a dose of 10 mg/kg.
(§1) The effect was judged by total catalepsy scores of 10 animals in one group (the maximum score is 50 points). When total score was 40 points or less, the activity of the compounds was judged positive. The number of animals showing remission of catalepsy was expressed by the number of cases in which the catalepsy score was 4 points or less in 10 cases. The catalepsy remission ratio was expressed as the percentage reduction of the total score in the test compound-administered group to the total score in the control group.

[2] = tested on: reserpine-induced catalepsy; experiment: Activity on reserpine-induced catalepsy; assay type: in vivo, mouse; details: catalepsy score 4 points or less, out of 10 mice; oral
Experimental: This test was carried out using 10 animals per group of male ddY mice of 5 week age (22 to 24 g in body weight, Japan SLC). […] Reserpine (5 mg/kg: apoplon, Daiichi Pharmaceutical Co., Ltd.; diluted with distilled water) was subcutaneously administered, and catalepsy-inducing activity was observed from 18 hours after the administration. […] Each test compound was suspended in distilled water for injection containing 0.5% MC (manufactured by Otsuka Pharmaceutical Co., Ltd.) The suspension containing each of the test compounds or a solution containing no test compound (distilled water for injection containing 0.5% MC (manufactured by Otsuka Pharmaceutical Co., Ltd.); control) was orally administered (0.1 mL per 10 g mouse body weight) and, one hour after the administration of test compound, only forelimbs or only hindlimbs of each animal were laid on a stand having a size of 4.5 cm in height and 1.0 cm in width, to measure catalepsy symptoms.
as §1, with “maximum” for “maximum score”, “When the” for “When”, “test compound” for “compounds”

[3] = tested on: ddY male mice; experiment: Forced swimming method (measurement of immobility time); assay type: in vivo, mouse; details: 10 mg/kg oral administration; result in words
Experimental: Ten animals per group of ddY male mice (21 to 26 g in body weight, Japan SLC) were used as the test animal. During the preliminary feeding period, they were allowed to have feed and water freely in an animal room of a room temperature of 23±1° C. and a humidity of 55±5%. Animals showing abnormal reactions in terms of spontaneous activity, myotonia, eyesight or the like were excluded beforehand. The test compound was suspended in a 0.3% Tween 80 solution and orally administered one hour before the test. In the negative control group, 10 mL/kg of a 0.3% Tween 80 solution alone was orally administered. Measurement of immobility time was carried out in accordance with the method of Porsolt (Arch. int Pharmacodyn., 229: 327-336 (1977)). That is, a cylindrical transparent acrylic water tank (10 cm in diameter and 25 cm in height) was filled with 9 cm in depth of water having a temperature of 23±1° C., and mice were forced to swim for 6 minutes. When mice are put into water, they immediately start to swim trying to escape from the tank, but the motion gradually decreases 1 to 2 minutes thereafter. […] In order to reduce effects of daily rhythm, the test was carried out by using 5 of the 10 animals per group in the morning, and the remaining 5 animals in the afternoon. […]

[4] = tested on: MPTP-treated common marmoset; experiment: Parkinson's disease model (common marmoset treated with MPTP); assay type: in vivo; details: result in words

Compound	Number of animals showing remission [1]	Number of animals showing remission [2]	Immobility time-shortening activity [3]	Effect in the common marmoset MPTP-treated Parkinson's disease model [4]
CC(C)(O)CN1CCN(c2cc3nc(-c4ccco4)nn3c(N)n2)CC1 [Compound 1, 5-Amino-2-(2-furyl)-7-(4-(2-hydroxy-2-methylpropyl)piperazinyl)[1,2,4]triazolo[1,5-c]pyrimidine]	10	8	significant immobility time-shortening activity	–
Nc1nc(N2CCN(CC3(O)CC3)CC2)cc2nc(-c3ccco3)nn12 [Compound 5, 5-Amino-2-(2-furyl)-7-(4-(1-hydroxycyclopropylmethyl)piperazinyl)[1,2,4]triazolo[1,5-c]pyrimidine]	10	10	–	–
COC(C)(C)CN1CCN(c2cc3nc(-c4ccco4)nn3c(N)n2)CC1 [Compound 6, 5-Amino-2-(2-furyl)-7-(4-(2-methoxy-2-methylpropyl)piperazinyl)[1,2,4]triazolo[1,5-c]pyrimidine]	10	9	–	–
CCC(O)(CC)CCN1CCN(c2cc3nc(-c4ccco4)nn3c(N)n2)CC1 [Compound 10, 5-Amino-2-(2-furyl)-7-(4-(3-ethyl-3-hydroxypentyl)piperazinyl)[1,2,4]triazolo[1,5-c]pyrimidine]	9	–	–	–
CC(C)(O)CCCN1CCN(c2cc3nc(-c4ccco4)nn3c(N)n2)CC1 [Compound 13, 5-Amino-2-(2-furyl)-7-(4-(4-hydroxy-4-methylpentyl)piperazinyl)[1,2,4]triazolo[1,5-c]pyrimidine]	8	–	–	–
CC(C)(O)CCCCN1CCN(c2cc3nc(-c4ccco4)nn3c(N)n2)CC1 [Compound 14, 5-Amino-2-(2-furyl)-7-(4-(5-hydroxy-5-methylhexyl)piperazinyl)[1,2,4]triazolo[1,5-c]pyrimidine]	9	8	–	–
Nc1nc(N2CCN(Cc3nc4ccccc4s3)CC2)cc2nc(-c3ccco3)nn12 [Compound 19, 5-Amino-7-(4-(benzothiazol-2-ylmethyl)piperazinyl)-2-(2-furyl)[1,2,4]triazolo[1,5-c]pyrimidine]	9	7	–	–
Nc1nc(N2CCN(Cc3ccc4nsnc4c3)CC2)cc2nc(-c3ccco3)nn12 [Compound 20, 5-Amino-7-(4-(benzo-2,1,3-thiadiazol-5-ylmethyl)piperazinyl)-2-(2-furyl)[1,2,4]triazolo[1,5-c]pyrimidine]	9	–	–	–
Cc1cc(CN2CCN(c3cc4nc(-c5ccco5)nn4c(N)n3)CC2)no1 [Compound 21, 5-Amino-2-(2-furyl)-7-(4-(5-methylisoxazol-3-ylmethyl)piperazinyl)[1,2,4]triazolo[1,5-c]pyrimidine]	10	7	–	effective
Cc1cc(CN2CCN(c3cc4nc(-c5ccco5)nn4c(N)n3)CC2C)no1 (stereo not drawn) [Compound 22, 5-Amino-2-(2-furyl)-7-(3-methyl-4-(5-methylisoxazol-3-ylmethyl)piperazinyl)[1,2,4]triazolo[1,5-c]pyrimidine]	10	10	–	effective
Cc1nocc1CN1CCN(c2cc3nc(-c4ccco4)nn3c(N)n2)CC1 [Compound 24, 5-Amino-2-(2-furyl)-7-(4-(3-methylisoxazol-4-ylmethyl)piperazinyl)[1,2,4]triazolo[1,5-c]pyrimidine]	10	9	–	effective
Nc1nc(N2CCN(Cc3ccc4c(c3)NC(=O)CO4)CC2)cc2nc(-c3ccco3)nn12 [Compound 27, 5-Amino-2-(2-furyl)-7-(4-(3-oxo-3,4-dihydro-2H-benzo[1,4]oxazin-6-ylmethyl)piperazinyl)[1,2,4]triazolo[1,5-c]pyrimidine]	9	–	–	–
